Reference: the supplement of paper PMC4604168 (melanoma cell lines)
Some of the results follow. Repeats are few or missing, and single values can be far off.

What was measured:
Test in all cases: cell count relative to DMSO control; melanoma cells; higher = more viable cells
Details in all cases: library dose: standard library concentration; 72 h
[1] = tested on: 501Mel
[2] = tested on: A101D
[3] = tested on: A2058
[4] = tested on: A375
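Also: cells treated in 1,536-well plates, then fixed and DAPI-stained, with nuclei counted from automated high-throughput microscope images.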

Compound	cell count [1]	cell count [2]	cell count [3]	cell count [4]
CC1(C)CCC(c2ccc(Cl)cc2)=C(CN2CCN(c3ccc(C(=O)NS(=O)(=O)c4ccc(N[C@H](CCN5CCOCC5)CSc5ccccc5)c(S(=O)(=O)C(F)(F)F)c4)cc3)CC2)C1 + c1cc(-c2cnn3cc(-c4ccc(OCCN5CCCCC5)cc4)cnc23)ccn1 [Dorsomorphin] (first compound 2 µM, partner dose 2 µM)	57.3%	23.8%	70.5%	44%
O=C(/C=C/c1cccnc1)NCCCCC1CCN(C(=O)c2ccccc2)CC1 + COc1ccc(-c2ccc3c(N4CCOCC4)nc(N4C[C@@H](C)O[C@@H](C)C4)nc3n2)cc1CO [KU0063794] (first compound 0.05 µM, partner dose 0.1 µM)	74.1%	71.9%	91%	105%
CC1(C)CCC(c2ccc(Cl)cc2)=C(CN2CCN(c3ccc(C(=O)NS(=O)(=O)c4ccc(N[C@H](CCN5CCOCC5)CSc5ccccc5)c(S(=O)(=O)C(F)(F)F)c4)cc3)CC2)C1 + Cn1cc(/C=C2\C(=O)Nc3cccnc32)c2ccccc21 [GW441756] (first compound 2 µM, partner dose 2 µM)	71%	48.1%	107%	120%
CC1(C)CCC(c2ccc(Cl)cc2)=C(CN2CCN(c3ccc(C(=O)NS(=O)(=O)c4ccc(N[C@H](CCN5CCOCC5)CSc5ccccc5)c(S(=O)(=O)C(F)(F)F)c4)cc3)CC2)C1 + Oc1nc(-c2ccc(C(F)(F)F)cc2)nc2c1CSCC2 [XAV939] (first compound 2 µM, partner dose 10 µM)	71.1%	56.5%	65%	48.2%
CC1(C)CCC(c2ccc(Cl)cc2)=C(CN2CCN(c3ccc(C(=O)NS(=O)(=O)c4ccc(N[C@H](CCN5CCOCC5)CSc5ccccc5)c(S(=O)(=O)C(F)(F)F)c4)cc3)CC2)C1 + CCCCCCCCCCCC1=C(O)C(=O)C=C(O)C1=O [Embelin] (first compound 2 µM, partner dose 6 µM)	75.2%	28.7%	114%	61.2%
Cc1ccc(Nc2nccc(N(C)c3ccc4c(C)n(C)nc4c3)n2)cc1S(N)(=O)=O [Pazopanib] + COc1cc2ncnc(Nc3ccc(Oc4ccccc4)cc3)c2cc1OC [SrcI1] (first compound 2 µM, partner dose 10 µM)	61.8%	50.6%	77.8%	122%
CC1(C)CCC(c2ccc(Cl)cc2)=C(CN2CCN(c3ccc(C(=O)NS(=O)(=O)c4ccc(N[C@H](CCN5CCOCC5)CSc5ccccc5)c(S(=O)(=O)C(F)(F)F)c4)cc3)CC2)C1 + COc1ccc(COc2ccc(Cc3cnc(N)nc3N)cc2OC)cc1 [GW2580] (first compound 2 µM, partner dose 5 µM)	74.6%	58.4%	86.4%	51.7%
Cc1ccc(Nc2nccc(N(C)c3ccc4c(C)n(C)nc4c3)n2)cc1S(N)(=O)=O [Pazopanib] + CCN(CC)CCCCNc1ncc2cc(-c3cc(OC)cc(OC)c3)c(NC(=O)NC(C)(C)C)nc2n1 [PD173074] (first compound 2 µM, partner dose 0.5 µM)	97.5%	92.2%	106%	123%
Cc1ccc(Nc2nccc(N(C)c3ccc4c(C)n(C)nc4c3)n2)cc1S(N)(=O)=O [Pazopanib] + N#Cc1c(O)c2c(-c3ccc(-c4ccccc4O)cc3)csc2[nH]c1=O [A769662] (first compound 2 µM, partner dose 10 µM)	109%	94.5%	116%	93.7%
Cc1ccc(Nc2nccc(N(C)c3ccc4c(C)n(C)nc4c3)n2)cc1S(N)(=O)=O [Pazopanib] + O=c1cc(-c2cccc3c2Sc2ccccc2S3)oc(N2CCOCC2)c1 [KU55933] (first compound 2 µM, partner dose 5 µM)	124%	75.4%	105%	105%
CC1(C)CCC(c2ccc(Cl)cc2)=C(CN2CCN(c3ccc(C(=O)NS(=O)(=O)c4ccc(N[C@H](CCN5CCOCC5)CSc5ccccc5)c(S(=O)(=O)C(F)(F)F)c4)cc3)CC2)C1 + Oc1cc(-c2nc(-c3ccccc3)[nH]c2-c2ccncc2)ccc1Cl [L779450] (first compound 2 µM, partner dose 1 µM)	71.3%	29.8%	87.7%	63%
O=C(/C=C/c1cccnc1)NCCCCC1CCN(C(=O)c2ccccc2)CC1 + COc1ccc(COc2ccc(Cc3cnc(N)nc3N)cc2OC)cc1 [GW2580] (first compound 0.05 µM, partner dose 5 µM)	73.4%	88.5%	75.1%	108%
O=C(/C=C/c1cccnc1)NCCCCC1CCN(C(=O)c2ccccc2)CC1 + Cc1cc([N+](=O)[O-])ccc1NS(=O)(=O)c1cc(Cl)ccc1Cl [FH535] (first compound 0.05 µM, partner dose 5 µM)	91.8%	68.3%	81%	95.2%
CC1(C)CCC(c2ccc(Cl)cc2)=C(CN2CCN(c3ccc(C(=O)NS(=O)(=O)c4ccc(N[C@H](CCN5CCOCC5)CSc5ccccc5)c(S(=O)(=O)C(F)(F)F)c4)cc3)CC2)C1 + N#Cc1c(O)c2c(-c3ccc(-c4ccccc4O)cc3)csc2[nH]c1=O [A769662] (first compound 2 µM, partner dose 10 µM)	100%	38.7%	108%	66.1%
Cc1ccc(Nc2nccc(N(C)c3ccc4c(C)n(C)nc4c3)n2)cc1S(N)(=O)=O [Pazopanib] + CCCCCCCCCCCC1=C(O)C(=O)C=C(O)C1=O [Embelin] (first compound 2 µM, partner dose 6 µM)	69.9%	90.9%	86.4%	121%
CC1(C)CCC(c2ccc(Cl)cc2)=C(CN2CCN(c3ccc(C(=O)NS(=O)(=O)c4ccc(N[C@H](CCN5CCOCC5)CSc5ccccc5)c(S(=O)(=O)C(F)(F)F)c4)cc3)CC2)C1 + O=C1NC(=O)/C(=C/c2ccc(-c3ccc(F)cc3O)o2)S1 [AS252424] (first compound 2 µM, partner dose 5 µM)	80.2%	56.8%	93.9%	67.1%
O=C(/C=C/c1cccnc1)NCCCCC1CCN(C(=O)c2ccccc2)CC1 + CC(C)CCN1c2nc(Nc3cc(F)c(O)c(F)c3)ncc2N(C)C(=O)C1C [BID1870] (first compound 0.05 µM, partner dose 1 µM)	63.2%	68.5%	96.6%	97.8%
O=C(/C=C/c1cccnc1)NCCCCC1CCN(C(=O)c2ccccc2)CC1 + N#Cc1c(O)c2c(-c3ccc(-c4ccccc4O)cc3)csc2[nH]c1=O [A769662] (first compound 0.05 µM, partner dose 10 µM)	71.3%	68.6%	97.3%	151%
O=C(/C=C/c1cccnc1)NCCCCC1CCN(C(=O)c2ccccc2)CC1 + COc1ccc2c(c1)CCC1C2CCC2(C)C(NCCCCCCN3C(=O)C=CC3=O)CCC12 [U73122] (first compound 0.05 µM, partner dose 2 µM)	82.7%	64.6%	51.4%	81.4%
Cc1ccc(Nc2nccc(N(C)c3ccc4c(C)n(C)nc4c3)n2)cc1S(N)(=O)=O [Pazopanib] + Oc1nc(-c2ccc(C(F)(F)F)cc2)nc2c1CSCC2 [XAV939] (first compound 2 µM, partner dose 10 µM)	71.6%	74.4%	69.9%	83.4%
CC1(C)CCC(c2ccc(Cl)cc2)=C(CN2CCN(c3ccc(C(=O)NS(=O)(=O)c4ccc(N[C@H](CCN5CCOCC5)CSc5ccccc5)c(S(=O)(=O)C(F)(F)F)c4)cc3)CC2)C1 + Cc1cc([N+](=O)[O-])ccc1NS(=O)(=O)c1cc(Cl)ccc1Cl [FH535] (first compound 2 µM, partner dose 5 µM)	71.6%	30.5%	80.9%	46.3%
CC1(C)CCC(c2ccc(Cl)cc2)=C(CN2CCN(c3ccc(C(=O)NS(=O)(=O)c4ccc(N[C@H](CCN5CCOCC5)CSc5ccccc5)c(S(=O)(=O)C(F)(F)F)c4)cc3)CC2)C1 + COC(=O)c1sccc1S(=O)(=O)Nc1ccc(Nc2ccccc2)cc1OC [GSK0660] (first compound 2 µM, partner dose 5 µM)	92%	45.9%	105%	76.6%
Cc1ccc(Nc2nccc(N(C)c3ccc4c(C)n(C)nc4c3)n2)cc1S(N)(=O)=O [Pazopanib] + Cc1cc([N+](=O)[O-])ccc1NS(=O)(=O)c1cc(Cl)ccc1Cl [FH535] (first compound 2 µM, partner dose 5 µM)	68.3%	52.7%	62.2%	87.1%
Cc1ccc(Nc2nccc(N(C)c3ccc4c(C)n(C)nc4c3)n2)cc1S(N)(=O)=O [Pazopanib] + O=C(O)C(=O)Nc1sc2c(c1C(=O)O)CCNC2 [TCS401] (first compound 2 µM, partner dose 8.33333 µM)	84.6%	70.3%	92.6%	135%
CC1(C)CCC(c2ccc(Cl)cc2)=C(CN2CCN(c3ccc(C(=O)NS(=O)(=O)c4ccc(N[C@H](CCN5CCOCC5)CSc5ccccc5)c(S(=O)(=O)C(F)(F)F)c4)cc3)CC2)C1 + O=C(Nc1ccccc1)c1cc([N+](=O)[O-])ccc1Cl [GW9662] (first compound 2 µM, partner dose 10 µM)	66.5%	24.5%	86.1%	57.5%
O=C(/C=C/c1cccnc1)NCCCCC1CCN(C(=O)c2ccccc2)CC1 + Oc1cc(-c2nc(-c3ccccc3)[nH]c2-c2ccncc2)ccc1Cl [L779450] (first compound 0.05 µM, partner dose 1 µM)	63.8%	69.6%	119%	95.5%
